For 95 molecules, inhibition results are on record in PubChem BioAssay AID485344 (National Center for Advancing Translational Sciences (NCATS), 2010).

Screen size: about 340,000 compounds; about 6,900 (2%) were called active. Rule as the data show it: active = inhibition above about 30%; inactive = below that, where a call was filed. The list shows a part of the results, in another mix than the full data. Where no call is shown, the source filed none.

Chain of UniProt P14416 (P14416 whole entry, looked up): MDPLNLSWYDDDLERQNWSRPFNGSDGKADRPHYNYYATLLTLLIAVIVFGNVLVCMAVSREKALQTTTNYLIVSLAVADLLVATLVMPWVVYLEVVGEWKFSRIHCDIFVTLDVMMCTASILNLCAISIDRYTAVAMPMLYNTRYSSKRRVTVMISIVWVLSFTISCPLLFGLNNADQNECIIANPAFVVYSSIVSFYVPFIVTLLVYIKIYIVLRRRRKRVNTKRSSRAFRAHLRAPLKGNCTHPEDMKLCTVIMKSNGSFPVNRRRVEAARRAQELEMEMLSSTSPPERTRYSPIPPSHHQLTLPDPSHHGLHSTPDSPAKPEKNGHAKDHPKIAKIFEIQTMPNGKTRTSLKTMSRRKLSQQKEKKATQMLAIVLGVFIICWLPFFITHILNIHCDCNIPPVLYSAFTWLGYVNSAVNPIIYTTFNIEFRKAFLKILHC

The experiment concerns the target D(2) dopamine receptor (Homo sapiens) (UniProt P14416). The experiment in a line: HTS Assay for Allosteric Antagonists of the Human D2 Dopamine Receptor: Primary Screen for Antagonists. Also: 0% is about no effect. Conditions: HEK293 TREx D2 cells, calcium flux, dopamine EC80; at 10 µM; stronger effect = higher value. An excerpt:
NIH Chemical Genomics Center [NCGC] NIH Molecular Libraries Probe Centers Network [MLPCN] MLPCN Grant: NS064831-01 Assay Submitter (PI): David Sibley Dopamine receptors (DARs) are involved in the etiology and/or therapy of a number of neuropsychiatric and endocrine disorders. For instance, all receptor-based antiparkinsonian drugs work via stimulating the D2 DAR subtype whereas all FDA-approved antipsychotic agents are antagonists of this receptor. […] There are three different types of allosteric modulators that we are seeking, two of which will stimulate or augment receptor signaling, allosteric agonists and potentiators, while the third, allosteric antagonists, will attenuate receptor signaling. The present primary screening assay measures compound antagonism after an EC80 addition of dopamine by tracking calcium flux in a […], inducible Hek293 Trex D2 cell line.
Freshly passaged cells are plated in 1536 well black, clear bottom plates at a density of 4000 cells/well in 3 ul of complete media containing 1x tetracycline inducer. After an overnight incubation at 30 C in 5% CO2, cells are loaded with 2 ul of the no wash Calcium Assay Kit (ABD Bioquest) and incubated at room temperature for 30 to 90 minutes. Agonist read: A 10 cycle (1 second/cycle) baseline measurement is taken and then the FDSS online 1536 pintool delivers 23 nl of compound library (as well as dopamine controls) to the plate. The plate is measured for kinetically at 1 cycle/sec for 180 seconds. Following the 180 second read, 1 ul of an EC80 (negative modulation assay) is delivered by an onboard pipette head. Measurements are taken kinetically for an additional 180 seconds.
The inhibition is the change of the read-out against control, counted positive when it falls. On to `CC(COc1ccccc1)N1CCC(CO)(CCc2ccccc2)CC1` (stereo not given), for which the inhibition was active: 51.5%. In the case of `COc1cc(O)ccc1C1CC(=O)Nc2c1c(=O)nc(SCc1ccccc1C)n2C` (stereo not given) it was -2.04%. In the case of `CCN1c2ccccc2-c2nc(SCC(=O)Nc3cccc(C(F)(F)F)c3)ncc2S1(=O)=O`, the inhibition is -1.53%. Take `CCC(C)(C)NS(=O)(=O)c1cc(-c2cc(C)no2)ccc1C`: the inhibition is -0.669%. Consider `Cc1ccc(C)c(CN2C(=O)c3ccccc3S(=O)c3ccc(C(=O)N4CCC(C)CC4)cc32)c1` (stereo not given), for which the inhibition stood at 11.1%. The figure for `COc1ccc(-c2nc(CSCC(=O)N3CCN(C)CC3)c(C)o2)cc1OC` is active: 39.6%; for `COc1ccc(CNc2oc(-c3ccc(COc4ccc(Cl)cc4)o3)nc2C#N)cc1` it is 4.46%; for `CCOC(=O)c1cccc(NC(=O)c2cc(S(=O)(=O)N3CCCCCC3)cn2C)c1` it is 6.87%. The figure for `CC1(C)C=C(c2ccc(C=O)s2)CC(C)(C)N1` is active: 33.6%; for `CCOC(=O)CSc1nc2sc3c(c2c(=O)n1Cc1ccccc1)CCC(C(C)(C)C)C3` (stereo not given) it is -1.14%; for `COc1ccc(CNC(=O)c2c(Nc3ccc(OC)cc3OC)sc(C(=O)c3ccc(Cl)cc3)c2N)cc1` it is -3.86%. Turning to `Cc1ccc(NC(=O)c2oc3ccc(S(=O)(=O)N4CCCCC4)cc3c2C)cc1C`, the inhibition was determined as 13.1%. Regarding `O=C(c1cc2ccc3cccnc3c2[nH]1)N1CCN(c2cccc(C(F)(F)F)c2)CC1`, the inhibition was found to be 8.72%. The figure for `COc1ccc2c(c1)c1c(c(=O)n(CCc3ccccc3)c(=O)n1Cc1ccccc1)n2C` is -4.67%. On to `Cc1ccc(C)c2sc(NC(=O)c3ccc(S(=O)(=O)N4CCCC4)cc3)nc12`, for which the inhibition stood at 14.6%. The figure for `CCOc1ccc(CNC(=O)c2ccc3c(c2)nc2n3CCOC2)cc1` is -5.94%; for `O=C(Cc1ccccc1[N+](=O)[O-])NC1CCN(Cc2ccccc2)CC1` it is active: 48.4%; for `CCN1CCN(CCCNC(=O)c2cc3c(=O)n(CC)c4ccccc4c3s2)CC1` it is 6.75%. With `Cc1c(CNCc2ccc(OC(C)C)cc2)c(C(=O)O)c(C)n1Cc1ccc(Cl)cc1`, the inhibition was -7.82%. `COc1ccc(N(C(=O)c2ccccc2F)S(=O)(=O)c2ccc3c(c2)n(C)c(=O)n3C)cc1`: the inhibition is -8.44%. With `CC(=O)N1CCOc2cc(S(=O)(=O)NCc3ccc(C)cc3)c(C)cc21`, the inhibition was -18.7%. The figure for `COc1cc(OC)cc(C(=O)Nc2ccc3oc(-c4ccccc4C)nc3c2)c1` is -7.02%. As to `CCC(=O)Nc1ccc(C)cc1-c1nc2ccccc2n(CC(=O)Nc2ccccc2Cl)c1=O`, the inhibition is -11.3%.

Consider `CN(CC(=O)Nc1ccc(F)c(F)c1F)C(=O)Cc1ccc2c(c1)OCCO2`, for which the inhibition is active: 35.1%. In the case of `Cc1ccccc1NC(=O)c1c(C)oc2ccc(O)c(CN3CCCC3)c12` it was 11.1%; in that of `COc1cccc(-c2cc(C(=O)Nc3cc(C)nn3-c3ccccc3)no2)c1`, 5.34%. With `CC(C)CNc1nc(NC(C)(C)C)nc(Oc2ccc(=O)n(-c3ccccc3)n2)n1`, the inhibition is -19.4%.

Consider `COc1ccccc1OCCn1c(COc2cc(C)ccc2C)nc2ccccc21`, for which the inhibition was -9.75%.

On to `Cc1nn2c(C)c(C(=O)N3CCN(c4ccccc4)CC3)cnc2c1-c1ccccc1`, for which the inhibition came out at 9.26%. As to `Cc1ccc(CCNC(=O)c2cc3c(=O)oc4ccccc4c3s2)cc1`, the inhibition is -6.77%. The figure for `COc1cccc(CNC(=O)CNS(=O)(=O)c2ccc3nc(C)sc3c2)c1` is 0.638%; for `COc1cc(NC(=O)CSc2nc3ccccc3nc2Cc2ccccc2OC)cc(OC)c1` it is -18.8%. Consider `O=C(c1ccc(Cl)cc1)N(Cc1ccco1)Cc1ccco1`, for which the inhibition was 2.66%. In the case of `CCOc1ccccc1Nc1sc(C(=O)c2ccccc2)c(N)c1C(=O)NCCc1ccccc1` it was -14.5%; in that of `COc1ccc(CCNC(=O)CCCn2c(=O)c3ccccc3n(Cc3ccc(C)cc3)c2=O)cc1OC`, -12.2%; in that of `Cc1ccc2ncc(C(=O)NCCc3ccc(S(N)(=O)=O)cc3)c(=O)n2c1`, 17.5%. As to `COc1ccc(C)cc1NC(=O)COCc1cc(-c2cccs2)on1`, the inhibition is 5.82%. Consider `O=C(NCC(Cl)c1ccc2ccccc2c1)c1c(F)cccc1F` (stereo not given), for which the inhibition is active: 68.8%. On to `CCOc1ccc(NC(=O)CSc2nc3c(c(=O)[nH]2)CCCC3)cc1`, for which the inhibition was 6.49%. In the case of `O=C(CCS(=O)(=O)c1cc(Br)cc2c1N(C(=O)C1CC1)CC2)N1CCN(c2ccc(F)cc2)CC1` it was -9.05%; in that of `COc1cc(C2c3c(oc4ccc(F)cc4c3=O)C(=O)N2c2nc(C)c(C)s2)cc(OC)c1OC` (stereo not given), 4.22%; in that of `COc1ccc(N2CCN(S(=O)(=O)CCNC(=O)C3CC(=O)N(c4ccccc4)C3)CC2)cc1` (stereo not given), -4.07%. As to `CCCOc1ccc(CN(C(=O)c2cc(=O)c3ccc(C)cc3o2)C2CCS(=O)(=O)C2)cc1` (stereo not given), the inhibition is -3.57%. Take `Cc1nc(CC(=O)Nc2cc(Cl)ccc2C)cs1`: the inhibition is -2.59%. For `COc1cc(C)ccc1OCCSc1nc(-c2cccc(C)c2)nc2cc(=O)[nH]n12`, the inhibition stood at 7.33%. In the case of `CCCN(C(=O)c1cn(C)c(=O)c2ccccc12)c1ccccc1C` it was 4.02%; in that of `Cc1cc(C(=O)COC(=O)c2ccc3c(c2)NC(=O)CS3)c(C)n1CCc1ccc(Cl)cc1`, active: 63.4%.

In the case of `O=C(CN1CCSc2ccccc21)NCc1ccccc1F`, the inhibition was -18.2%. The figure for `COc1ccc2nc(N(Cc3cccnc3)C(=O)C3COc4ccccc4O3)sc2c1` (stereo not given) is -10%.

Regarding `CCNC(=O)c1ccc2nc(CCc3ccccc3)oc2c1`, the inhibition is -6.47%. The figure for `CCN(CC)CCCNC(=O)c1ccc2nc(N3CCCCC3)sc2c1` is -10.1%; for `Cn1c(CCN2CCCCC2)nc2cc(NS(=O)(=O)c3ccccc3)ccc21` it is active: 37.9%; for `CCC(C(=O)NCCc1ccc(OC)c(OC)c1)n1nc(C)n2c(cc3occc32)c1=O` (stereo not given) it is active: 33.1%. As to `Cc1cc(Nc2ccccc2C)nc(-n2nc(C)cc2C)n1`, the inhibition was -15.5%.

As for `Cc1n[nH]c(C)c1S(=O)(=O)N1CCCC(C(=O)Nc2ccc(Br)cc2)C1` (stereo not given), the inhibition was 3.09%. In the case of `COc1ccc(CCNC(=O)c2cc(C)nc3c2c(C)nn3-c2ccc(C)cc2)cc1OC` it was 5.71%; in that of `O=C1C(=O)N(C2CCN(C(=O)c3ccc(Cl)cc3)CC2)CCN1Cc1ccc(F)cc1`, 4.68%; in that of `CCOc1ccccc1CNC(=O)Cn1ncn2nc(-c3cccs3)cc2c1=O`, 17.4%. The figure for `COc1ccccc1CCNC(=O)C(=O)NCC(c1cccs1)S(=O)(=O)c1ccc(C)cc1` (stereo not given) is -8.83%. In the case of `COc1ccc(Nc2nnc(-c3cc4c(ccc5ccccc54)oc3=O)s2)cc1`, the inhibition is 1.7%. Turning to `COc1ccccc1C(=O)Nc1nc2nc(-c3ccccc3)cc(=O)n2[nH]1`, the inhibition was 3.26%. The figure for `Cc1cc(C)cc(NC(=O)[C@H](NC(=O)[C@@H]2Cc3ccccc3CN2)c2ccccc2)c1` is active: 40.1%; for `CCc1nn2c(=O)cc(COC(=O)c3ccc(NC(=O)c4cccs4)cc3)nc2s1` it is -0.319%; for `Cc1ccccc1NS(=O)(=O)c1ccc2[nH]cc(C(=O)NC(C)c3ccccc3)c(=O)c2c1` (stereo not given) it is -23.8%.

For the molecule `CC1CCC(NC(=O)CN2CCC(n3nnc4cc(F)ccc43)CC2)CC1` (stereo not given), the inhibition was active: 41.2%. In the case of `Cc1ccc(-c2noc(-c3ccc(NCc4ccco4)c([N+](=O)[O-])c3)n2)cc1`, the inhibition is 13.6%. Take `COc1cc(NC(=O)CC(c2ccc(C)cc2)N2Cc3ccccc3C2=O)cc(OC)c1` (stereo not given): the inhibition was determined as 21.9%. Turning to `CC1=C(c2ccc(F)cc2)S(=O)(=O)NC1=NCc1ccccc1F`, the inhibition stood at 5.99%. With `COC1CCCN(C(=O)c2ccc3oc(Cc4ccc(Cl)cc4)nc3c2)C1` (stereo not given), the inhibition was active: 30.6%. The figure for `COc1ccc(-c2nc(C)c(CCNC(=O)C(=O)Nc3ccccc3C#N)s2)cc1OC` is -13%. In the case of `COc1cc(C2CC(=O)c3c([nH]c(C(=O)OCC4CCCCC4)c3C)C2)cc(OC)c1OC` (stereo not given) it was 8.73%.

Regarding `Cc1cc(C)n(CC2CC(=O)N(c3cc(Cl)cc(Cl)c3)C2=O)n1` (stereo not given), the inhibition is active: 30.5%.

On to `COC(=O)c1c(NC(=O)c2nc(SCc3cccc(C)c3)ncc2Cl)sc2c1CCCC2`, for which the inhibition is -12.5%. In the case of `COc1ccc(-n2nnc(-c3nc(-c4cccs4)no3)c2N)cc1OC` it was 0.809%; in that of `CCc1ccc(CNC(=O)COc2cc(=O)n(CC)c3ccccc23)cc1`, -12.7%. As for `CC(=O)N1CCCC1c1nc2ccccc2n1Cc1cccc(Cl)c1` (stereo not given), the inhibition is -12.3%. In the case of `Cc1cn2c(=O)cc(COc3ccccc3NC(=O)c3ccc(C(C)(C)C)cc3)nc2s1` it was -6.87%. Turning to `COCCCNC(=O)CNC(=O)c1nn(-c2ccc(OC)c(Cl)c2)c(=O)c2ccccc12`, the inhibition was active: 50%. The figure for `Cc1cccc(CNC(=O)c2oc3c(c2C)-c2nn(Cc4cccc(Cl)c4)cc2CC3)c1` is 26.1%. `CCOc1ccc(CN2C(=O)c3ccccc3Sc3ccc(C(=O)NC)cc32)cc1`: the inhibition worked out at 8.05%.

As to `CC(C)NC(=O)Cn1c(=O)nc(-c2ccccc2F)c2cc(Cl)ccc21`, the inhibition is -5.1%. As for `COC(=O)c1ccc2c(c1)N(CC(=O)Nc1cccc(Cl)c1C)C(=O)c1ccccc1S2`, the inhibition was determined as 1.45%. On to `Cc1noc(-c2ccc(N3CCC(C)CC3)c([N+](=O)[O-])c2)n1`, for which the inhibition was found to be 15%. In the case of `COc1ccc(NC(=O)Cn2c(=O)oc3cc(S(=O)(=O)NCc4ccccc4)ccc32)c(OC)c1` it was 13.3%. In the case of `CCCCN(C)CCCNC(=O)Cn1ncc2c3ccccc3n(Cc3ccccc3F)c2c1=O` it was 1.27%. The figure for `COc1ccc(NS(=O)(=O)c2cc3c(cc2C)NC(=O)CO3)c(OC)c1` is 25.6%. With `O=C(CSC1=Nc2ccccc2C2=NC(Cc3ccccc3)C(=O)N12)Nc1ccccc1C(F)(F)F` (stereo not given), the inhibition is -17.3%. As for `COc1cc(NC(=O)C2CCN(S(=O)(=O)c3ccc4c(c3)oc(=O)n4C)CC2)cc(OC)c1`, the inhibition is 10.5%. In the case of `Cc1cc(Cl)ccc1OC(C)C(=O)NCCc1ccc2c(c1)OCCO2` (stereo not given) it was active: 63.6%. Turning to `CCOC(=O)c1cc2c(=O)n3ccccc3nc2n(CCOC)c1=NC(=O)C(C)(C)Oc1ccc(Cl)cc1`, the inhibition stood at 8.08%. In the case of `Cc1nc2nc(NC(=O)C(C)(C)C)[nH]n2c(=O)c1Cc1ccccc1` it was -8.25%; in that of `CCCCCC1=CCC/C1=N\NC(=O)c1ccc2c(c1)OCO2`, active: 31.2%. On to `Cc1ccc(Cn2ccn(CC(=O)Nc3c(C)cc(C)cc3C)c(=O)c2=O)cc1`, for which the inhibition is 19.3%. With `CC(C)c1cnc2c(c1SCc1cccc(F)c1)c(=O)n(C)c(=O)n2C`, the inhibition is 13.6%. In the case of `CC(=O)Oc1ccc(N2C(=O)C3C4C=CC(CC4)C3C2=O)cc1[N+](=O)[O-]` (stereo not given) it was active: 62.2%.
